Common to all, as to experiment: protein-binding microarray (PBM)
Common to all, as to conditions: PBM: ~300 nM protein, 6 mM HEPES pH 7.8, 80 mM KCl, 0.5 mM EDTA, 0.5 mM EGTA, 6% glycerol, 35 ng/ul poly-dIdC, 1% milk, 1 h, room temperature; Ap Aiptasia and Nv Nematostella (sea anemones) / Co Capsaspora / Aq Amphimedon (sponge) / Dm Drosophila / Hu human; RHD is the Rel homology domain; high values mean tight binding; most listed sequences are background and not binding sites; double strand, one strand shown

For assay [1], the target named is T1, GST-Ap-NF-kB RHD (UniProt A0A913YAJ5).
T1 sequence: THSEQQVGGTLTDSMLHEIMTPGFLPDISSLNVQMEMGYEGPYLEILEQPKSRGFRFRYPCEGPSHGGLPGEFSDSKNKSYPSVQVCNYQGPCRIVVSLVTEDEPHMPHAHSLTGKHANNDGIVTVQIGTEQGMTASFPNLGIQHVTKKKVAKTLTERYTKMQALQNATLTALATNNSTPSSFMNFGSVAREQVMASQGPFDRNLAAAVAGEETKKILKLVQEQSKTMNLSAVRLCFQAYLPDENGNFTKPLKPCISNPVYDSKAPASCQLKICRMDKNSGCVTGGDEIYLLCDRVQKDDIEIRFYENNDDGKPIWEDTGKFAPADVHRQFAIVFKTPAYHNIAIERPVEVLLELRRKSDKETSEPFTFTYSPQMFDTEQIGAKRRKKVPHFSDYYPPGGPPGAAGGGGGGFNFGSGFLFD

Assay [2] concerns the target T2, GST-Nv-NF-kB (Cys allele) (UniProt E5G601).
T2 sequence: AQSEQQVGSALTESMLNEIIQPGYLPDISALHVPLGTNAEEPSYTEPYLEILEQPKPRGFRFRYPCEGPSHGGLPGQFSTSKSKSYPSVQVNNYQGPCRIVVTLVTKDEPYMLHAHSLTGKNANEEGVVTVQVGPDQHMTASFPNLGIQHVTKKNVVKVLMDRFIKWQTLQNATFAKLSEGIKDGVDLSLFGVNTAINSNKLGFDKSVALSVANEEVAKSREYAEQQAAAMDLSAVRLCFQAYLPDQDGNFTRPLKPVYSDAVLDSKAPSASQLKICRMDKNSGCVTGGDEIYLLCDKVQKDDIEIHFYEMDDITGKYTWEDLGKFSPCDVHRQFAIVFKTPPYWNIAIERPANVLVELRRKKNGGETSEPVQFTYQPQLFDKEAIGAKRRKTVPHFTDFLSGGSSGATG

Assay [3] deals with T3, GST-Co-NF-kB (UniProt F1ARL5).
T3 sequence: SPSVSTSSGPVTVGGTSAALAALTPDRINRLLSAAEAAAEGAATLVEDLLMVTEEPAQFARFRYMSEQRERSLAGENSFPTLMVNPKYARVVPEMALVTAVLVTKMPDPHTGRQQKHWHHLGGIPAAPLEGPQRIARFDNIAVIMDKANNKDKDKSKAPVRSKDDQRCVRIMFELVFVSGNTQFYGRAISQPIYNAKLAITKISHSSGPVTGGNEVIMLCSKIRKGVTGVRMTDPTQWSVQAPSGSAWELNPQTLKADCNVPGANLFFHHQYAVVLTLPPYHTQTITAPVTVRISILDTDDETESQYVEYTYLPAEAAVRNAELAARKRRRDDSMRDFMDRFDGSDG

Assay [4] concerns the target T4, GST-Dm-Relish (UniProt Q94527).
T4 sequence: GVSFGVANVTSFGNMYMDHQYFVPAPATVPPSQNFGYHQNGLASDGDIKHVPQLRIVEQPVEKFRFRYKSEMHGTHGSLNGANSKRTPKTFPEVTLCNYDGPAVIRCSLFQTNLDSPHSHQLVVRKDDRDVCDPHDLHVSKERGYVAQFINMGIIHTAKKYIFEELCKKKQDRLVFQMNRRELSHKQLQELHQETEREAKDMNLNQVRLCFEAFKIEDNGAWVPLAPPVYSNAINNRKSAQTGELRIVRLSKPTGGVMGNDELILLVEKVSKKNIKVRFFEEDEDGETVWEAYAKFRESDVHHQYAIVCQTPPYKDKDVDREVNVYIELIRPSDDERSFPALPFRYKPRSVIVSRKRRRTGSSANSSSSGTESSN

Assay [5] concerns the target T5, GST-Aq-NF-kB (UniProt A9Y5G7).
T5 sequence: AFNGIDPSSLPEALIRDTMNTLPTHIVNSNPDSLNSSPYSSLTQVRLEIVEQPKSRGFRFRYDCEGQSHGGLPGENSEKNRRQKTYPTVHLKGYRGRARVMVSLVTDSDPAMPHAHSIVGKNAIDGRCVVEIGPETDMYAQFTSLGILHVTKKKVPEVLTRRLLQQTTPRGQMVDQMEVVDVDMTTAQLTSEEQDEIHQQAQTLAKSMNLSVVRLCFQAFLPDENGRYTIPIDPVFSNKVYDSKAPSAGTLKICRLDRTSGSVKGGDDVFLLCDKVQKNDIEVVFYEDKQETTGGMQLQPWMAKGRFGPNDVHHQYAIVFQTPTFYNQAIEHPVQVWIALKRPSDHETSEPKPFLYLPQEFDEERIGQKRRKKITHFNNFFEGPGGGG

The entries are a selection whose mix differs from that of the whole data set. The list includes weakly bound sequences.

Consider “CCGATTAACATCACGTGTGTAGGTGATGTTAATCGGGTCTTGATTCGCTTGACGCTGCTG”, for which the binding signal in assay [1] is 0.571 z-score; in assay [2], 0.71 z-score; in assay [3], 0.467 z-score; in assay [4], 0.985 z-score; in assay [5], 0.356 z-score.
For “CCGATTAACATCAACCTCAGCGCTGATGTTAATCGGGTCTTGATTCGCTTGACGCTGCTG” the same measures were 0.277 z-score, -4.42e-05 z-score, -0.26 z-score, -0.485 z-score and -0.417 z-score.
The like results for “CCGATTAACATCACGGAAAATTCTGATGTTAATCGGGTCTTGATTCGCTTGACGCTGCTG” were, in that order, 0.0473 z-score, -0.0525 z-score, 0.523 z-score, -0.0744 z-score and 1.15 z-score.
The like results for “CCGATTAACATCATGGACGAATTTGATGTTAATCGGGTCTTGATTCGCTTGACGCTGCTG” were, in that order, -0.00435 z-score, -0.109 z-score, 0.362 z-score, -0.408 z-score and -0.199 z-score.
As to “CCGATTAACATCACTTGCGCTATTGATGTTAATCGGGTCTTGATTCGCTTGACGCTGCTG”, the binding signal in assay [1] was 0.085 z-score; in assay [2], 0.065 z-score; in assay [3] it was -0.0207 z-score; in assay [4], -0.159 z-score; in assay [5] it was -0.325 z-score.
For “CCGATTAACATCAGCTTTATTTCTGATGTTAATCGGGTCTTGATTCGCTTGACGCTGCTG” the same measures were -0.454 z-score, -0.302 z-score, -0.36 z-score, -0.323 z-score and -0.266 z-score.
As to “CCGATTAACATCAGTTCCAACAATGATGTTAATCGGGTCTTGATTCGCTTGACGCTGCTG”, the binding signal in assay [1] was -0.197 z-score; in assay [2], -0.474 z-score; in assay [3], -0.343 z-score; in assay [4], -1.06 z-score; in assay [5], -0.569 z-score.
Take “CCGATTAACATCACGCAGTGTTATGATGTTAATCGGGTCTTGATTCGCTTGACGCTGCTG”: the binding signal in assay [1] was -0.338 z-score; in assay [2] it was -0.778 z-score; in assay [3], -0.725 z-score; in assay [4] it was 0.000736 z-score; in assay [5] it was -0.462 z-score.
Turning to “CCGATTAACATCACCAAGTATAGTGATGTTAATCGGGTCTTGATTCGCTTGACGCTGCTG”, the binding signal in assay [1] is -0.233 z-score; in assay [2] it was -0.0471 z-score; in assay [3], 1.42 z-score; in assay [4] it was 0.452 z-score; in assay [5], -0.273 z-score.
The like results for “CCGATTAACATCAGTGCGACGAGTGATGTTAATCGGGTCTTGATTCGCTTGACGCTGCTG” were, in that order, -0.0533 z-score, -0.592 z-score, -0.593 z-score, -0.512 z-score and -0.457 z-score.
As to “CCGATTAACATCAGGAATTGTCCTGATGTTAATCGGGTCTTGATTCGCTTGACGCTGCTG”, the binding signal is -0.624 z-score in assay [1]; 0.532 z-score in assay [2]; -0.145 z-score in assay [3]; -0.0845 z-score in assay [4]; 0.814 z-score in assay [5].
“CCGATTAACATCAAGCAAGGGCGTGATGTTAATCGGGTCTTGATTCGCTTGACGCTGCTG”: the binding signal is -0.0469 z-score in assay [1]; -0.0972 z-score in assay [2]; -0.202 z-score in assay [3]; -0.416 z-score in assay [4]; -0.251 z-score in assay [5].
The like results for “CCGATTAACATCATCCCTGTGGCTGATGTTAATCGGGTCTTGATTCGCTTGACGCTGCTG” were, in that order, 0.957 z-score, -0.113 z-score, -0.0268 z-score, -0.364 z-score and 0.406 z-score.
For the sequence “CCGATTAACATCAGCCTTATAAATGATGTTAATCGGGTCTTGATTCGCTTGACGCTGCTG”, the binding signal in assay [1] is -0.24 z-score; in assay [2] it was -0.412 z-score; in assay [3] it was 0.287 z-score; in assay [4] it was -0.429 z-score; in assay [5], -0.168 z-score.
